Measurements: PubChem BioAssay AID624417 (National Center for Advancing Translational Sciences (NCATS), 2012)
In all, about 410,000 compounds went through this assay and about 6,400 (1.6%) were called active. The inconclusive results got no clear call from the source; some entries with a clear call stand among them for comparison. Calls follow the shape of the dose curve; as a rule, active = well fitted inhibition curve with a large enough effect; inconclusive = small, poorly fitted or top-dose-only effect; inactive = no such curve, though single readings can be large or run the other way. Potencies of inconclusive entries are doubtful fits and often do not repeat.

These molecules were tested against Glucagon-like peptide 1 receptor (Homo sapiens) (UniProt P43220) (assay: qHTS of GLP-1 Receptor Inverse Agonists (Inhibition Mode)). Settings: HEK293 GLP-1R CRE-luciferase, luminescence, 24 h, GLP-1R form is constitutively active; activity change, negative = inhibition: at 38.3 µM (top of the series) unless noted.
UniProt P43220, sequence (P43220 whole entry, looked up): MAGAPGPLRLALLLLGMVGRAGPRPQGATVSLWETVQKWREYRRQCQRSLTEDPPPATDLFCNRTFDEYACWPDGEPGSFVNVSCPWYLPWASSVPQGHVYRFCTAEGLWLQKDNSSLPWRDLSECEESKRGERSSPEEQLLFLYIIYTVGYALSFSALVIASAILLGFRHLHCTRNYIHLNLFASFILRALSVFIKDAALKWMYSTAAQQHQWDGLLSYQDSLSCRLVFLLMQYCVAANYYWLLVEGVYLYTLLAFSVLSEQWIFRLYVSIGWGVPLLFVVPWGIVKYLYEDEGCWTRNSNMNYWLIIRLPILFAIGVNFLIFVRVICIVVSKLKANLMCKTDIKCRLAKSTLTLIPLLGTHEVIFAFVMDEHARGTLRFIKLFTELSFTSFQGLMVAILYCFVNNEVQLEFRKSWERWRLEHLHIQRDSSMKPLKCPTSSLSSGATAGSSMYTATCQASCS
Summary of the method: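 Constitutively active GLP-1R drives a cAMP-responsive luciferase in stably transfected HEK293 cells; test compounds are added after overnight (12 h) attachment and left 24 hr, and signal loss in luminescence marks inhibition.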
% is scaled to controls: 0 for no effect and ±100 for the full control effect; potency is read from the fitted curve at half-maximal effect; tags tell the direction and shape of the fitted curve.
Also: nearly all actives have a fitted effect of over 55% in size.

Potency, inconclusive:
O=C(NCC(c1ccco1)N1CCCCC1)c1ccc(COc2ccccc2)cc1 (stereo not drawn) 5.62 µM [inhibitor, full curve, poor fit]
COc1ccc(N=C2CCS(=O)(=O)c3sccc32)cc1 10 µM [inhibitor, single point]
O=C(Cn1cnc2onc(-c3ccc(F)cc3)c2c1=O)N1CCN(c2ccc(F)cc2)CC1 12.6 µM [inhibitor, single point]
CCOC(=O)c1ccc(NC(=S)N2CCSC2c2c(F)cc(F)cc2F)cc1 (stereo not drawn) 12.6 µM [inhibitor, partial curve, poor fit]
CCN=c1scc(-c2cccs2)n1/N=C/c1cc(OC)ccc1O 3.16 µM [inhibitor, full curve, poor fit]
O=C(NCCc1ccccc1Cl)C1CCC(=O)N(Cc2cccc(C(F)(F)F)c2)C1 (stereo not drawn) 4.47 µM [inhibitor, partial curve, poor fit]
COc1ccc(-c2noc(CSc3nc4ccc(C)cc4[nH]3)n2)cc1 17.8 µM [inhibitor, partial curve, poor fit]
Cc1ccc(OCCCCn2c(CO)nc3ccccc32)cc1 28.2 µM [inhibitor, single point]
COc1ccc(C(=O)NCC(c2ccc(Cl)cc2)N2CCCCC2)cc1 (stereo not drawn) 20 µM [inhibitor, single point]
Cc1ccccc1-c1nc(CS(=O)(=O)CC(=O)NCCCc2ccccc2)c(C)o1 10 µM [inhibitor, single point]
Cc1onc(-c2ccccc2)c1C(=O)Nc1nnc(C(C)(C)C)s1 8.91 µM [inhibitor, partial curve, poor fit]
COc1cccc(C(CNC(=O)C(c2ccccc2)c2ccccc2)N(C)C)c1 (stereo not drawn) 28.2 µM [inhibitor, single point]
COc1ccc(NC2=CC(c3ccccc3)N(c3ccc(OC)cc3)C2=O)cc1 (stereo not drawn) 11.2 µM [inhibitor, single point]
CCCOc1ccc(-c2nnn(CC(=O)N3CCCC(C)C3)n2)cc1 (stereo not drawn) 2.51 µM [inhibitor, partial curve, poor fit]
CC(C)C[C@H]1CNC(=S)N1C[C@H]1CCCN1C[C@H](Cc1ccccc1)N1C[C@H](Cc2ccc(O)cc2)N(CC2CCCCCC2)C1=S 6.31 µM [inhibitor, full curve, poor fit]
CN1CCCC1(C)C(=O)Nc1ccc(-n2cccc2)cc1 (stereo not drawn) 10 µM [inhibitor, single point]
Cc1[nH]c2ccccc2c1/C=N/Nc1nc(Nc2ccccc2)nc(N2CCOCC2)n1 0.708 µM [inhibitor, full curve, poor fit]
NC(=O)C1(Nc2ccc(-c3ccc(Br)cc3)cc2)CCCC1 1.78 µM [inhibitor, partial curve, poor fit]
COc1ccc(-c2sc(NC(C)=O)nc2-c2ccccc2)cc1 31.6 µM [inhibitor, single point]
Cc1cccc(C(=O)N2[C@@H](C(C)C)COc3cc(Br)ccc3S2(=O)=O)c1 28.2 µM [inhibitor, single point]
CCn1c2ccccc2c2cc(/C=N/NC(=O)c3ccccc3)ccc21 1.12 µM [inhibitor, full curve, poor fit]
CN(C(=O)CN1C(=O)NC(C)(c2cccc(Br)c2)C1=O)C1CCCCC1 (stereo not drawn) 28.2 µM [inhibitor, single point]
COC(=O)[C@]12CCCCC=C1N(Cc1cccc3ccccc13)C(=O)[C@H](CC(=O)N1CCSCC1)C2 22.4 µM [inhibitor, single point]
CCCOc1ccc(-c2c(C(=O)N/N=C/c3ccco3)nnn2-c2nonc2N)cc1 3.55 µM [inhibitor, partial curve, poor fit]
CCCC[C@@H]1CCCO[C@@](C(=O)NCc2cc(C)n(C)n2)(C(F)(F)F)C1 11.2 µM [inhibitor, partial curve, poor fit]
CC(C)OC(=O)c1cc2c(ccn2-c2ccc(F)cc2)n1CC(=O)N1CCN(C(=O)c2ccco2)CC1 5.62 µM [inhibitor, partial curve]
Cc1ccccc1CN1C[C@@H]2C[C@@H](c3ccc4nsnc4c3)N3CCC[C@@]23C1=O 10 µM [inhibitor, partial curve, poor fit]
Cc1cccc(N2C(=O)N3[C@H](c4ccc(F)cc4)[C@@H]4C(=O)N(C5CCCCC5)C(=O)[C@@H]4[C@]3(Cc3ccccc3)C2=O)c1 3.98 µM [inhibitor, partial curve]
O=C(Nc1onc2c1CCCC2)c1ccccc1 10 µM [inhibitor, single point]
O=C(CN1C(=O)NC2(CCCC2)C1=O)Nc1cc(Cl)ccc1N1CCCCC1 25.1 µM [inhibitor, single point]
C/C(N)=C(/C#N)C(=O)CSc1nn(-c2ccc(Cl)cc2)c(=S)s1 17.8 µM [inhibitor, single point]

Potency, active:
COc1cc(C(=O)N(Cc2ccccc2)c2cccc(C)c2)ccc1OC(F)F 11.2 µM

Activity change, negative = inhibition, inactive:
COc1cccc(CNC(=O)c2sc3ncccc3c2-n2c(C)ccc2C)c1OC -1.26%
O=C(Cn1nc(Cc2cccnc2)c2ccccc2c1=O)Nc1ccc(F)c(Cl)c1 -13.6%
CC(C)c1ccc(NC(=O)c2cc(Br)ccc2Br)cc1 -23.8%
Cc1ccccc1N(CC(=O)Nc1ccc(S(=O)(=O)N2CCOCC2)cc1)S(C)(=O)=O -0.6%
COc1ccccc1N1CCN(C2CC(=O)N(C)C2=O)CC1 (stereo not drawn) 1.14%

Activity change, negative = inhibition, inconclusive:
COc1ccccc1C1CCN(Cc2cccc3ccccc23)CC1 -84.7% [inhibitor]
